Data: patent US12325690B2, “Compounds for the reducing lipotoxic damage” (Mayo Foundation for Medical Education and Research, priority 2017, dated 2025)

Columns and labels:
[1] = test system: Mouse pancreatic acinar cells; experiment: Toxicity study in pancreatic acinar cells (ATP levels, LDH leakage); format: cell-based; details: 4 hours, 20-200 micromolar range
Protocol: Toxicity studies of the relevant compounds were also performed using by diluting the original ethanol stock 200 mM into the incubation medium for acinar cells (HEPES buffer, pH 7.4, as described by Navina et al) 600 micromolar stock solutions of the compounds in 0.3% ethanol in PBS. These were added to acinar cells at ⅓ dilutions starting at 200 micromolar. Mouse pancreatic acinar ATP levels and LDH leakage were measured over 4 hours and compared to control. Any number positive over control indicates % injury greater than control acini.

[2] = test system: ob/ob mice with severe pancreatitis; experiment: Caerulein-induced severe pancreatitis in obese ob/ob mice
[3] = molecular target: T1, recombinant human pancreatic lipase related protein 2 (hPLRP2) (Homo sapiens, UniProt P54317); experiment: FFA generation by recombinant hPLRP2; format: biochemical; details: % FFA generation; read-out: IC50 against hPLRP2
T1 sequence (P54317 18-469): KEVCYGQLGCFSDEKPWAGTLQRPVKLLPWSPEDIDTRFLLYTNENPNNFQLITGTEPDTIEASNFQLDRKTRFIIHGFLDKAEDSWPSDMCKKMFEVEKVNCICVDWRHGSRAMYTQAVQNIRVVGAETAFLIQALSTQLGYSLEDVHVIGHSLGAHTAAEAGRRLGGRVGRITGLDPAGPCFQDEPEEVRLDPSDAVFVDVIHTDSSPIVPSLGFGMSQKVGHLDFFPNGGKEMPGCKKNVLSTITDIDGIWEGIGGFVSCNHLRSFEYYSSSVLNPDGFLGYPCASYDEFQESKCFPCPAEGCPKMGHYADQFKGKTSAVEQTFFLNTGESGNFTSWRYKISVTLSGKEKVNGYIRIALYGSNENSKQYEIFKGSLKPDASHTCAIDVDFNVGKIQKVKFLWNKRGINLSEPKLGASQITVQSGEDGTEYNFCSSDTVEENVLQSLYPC
Protocol: (§1) The efficacy of a selection of the prepared analogs was explored to determine their ability to inhibit free fatty acid (FFA) generation from recombinant human lipases while retaining stability. To test these features, the analogs were dissolved in ethanol (200 mM stock) and further diluted to a 600 micromolar (0.3% ethanol) working stock in PBS. The agents were incubated with the recombinant enzymes in serial ⅓ dilutions spanning a range of 200 to 0.3 micromolar for 30 minutes, and then added to the substrate 1 mM glyceryl trilinoleate (GTL) in PBS, pH 7.4 along with cofactor colipase (CLPS; 0.5 mcg/ml).
(§2) These lipases form 15-30% of pancreatic lipases.

[4] = molecular target: T2, carboxyester lipase (hCEL) (Homo sapiens, UniProt P19835); experiment: FFA generation by recombinant hCEL; format: biochemical; details: % FFA generation; read-out: IC50 against hCEL
T2 sequence (P19835 21-753): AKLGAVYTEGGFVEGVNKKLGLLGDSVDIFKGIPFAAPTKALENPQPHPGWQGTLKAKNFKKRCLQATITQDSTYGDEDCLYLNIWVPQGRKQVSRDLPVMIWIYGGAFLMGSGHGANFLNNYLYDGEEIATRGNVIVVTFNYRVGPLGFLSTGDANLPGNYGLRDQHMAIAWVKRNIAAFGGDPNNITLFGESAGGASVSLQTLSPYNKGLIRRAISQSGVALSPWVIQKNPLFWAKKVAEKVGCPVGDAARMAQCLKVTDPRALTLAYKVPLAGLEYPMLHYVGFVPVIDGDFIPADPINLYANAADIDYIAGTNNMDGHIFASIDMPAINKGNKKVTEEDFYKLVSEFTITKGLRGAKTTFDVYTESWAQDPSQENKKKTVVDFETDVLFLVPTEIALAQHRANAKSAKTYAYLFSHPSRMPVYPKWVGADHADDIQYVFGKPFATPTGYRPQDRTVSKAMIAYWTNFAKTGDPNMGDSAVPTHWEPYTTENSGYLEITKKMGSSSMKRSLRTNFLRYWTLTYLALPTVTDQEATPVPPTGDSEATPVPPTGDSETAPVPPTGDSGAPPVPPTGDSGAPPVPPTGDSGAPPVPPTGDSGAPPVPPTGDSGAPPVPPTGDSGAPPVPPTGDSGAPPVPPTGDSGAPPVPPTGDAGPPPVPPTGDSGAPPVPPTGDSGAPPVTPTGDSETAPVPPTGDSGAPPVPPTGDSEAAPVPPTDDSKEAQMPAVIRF
Protocol: as §1, §2

[5] = test system: acinar cells incubated with GTL; experiment: GTL induced acinar injury (LDH leakage); format: cell-based; details: 10 micromolar
Excerpt: as §2

[6] = 20 mg/kg single intraperitoneal dose, ob/ob mice

## CCCCCCCCCCC[C@@H](C[C@@H]1OC(=O)[C@H]1CCCCCC)OC(=O)[C@H](CNC=O)NC=O [Compound 733]
[1]
  LDH leakage: inducing LDH leakage
  acinar ATP levels: drop in ATP
  toxicity to acinar cells: toxic to acinar cells

## CCCCCCCCCCC[C@@H](C[C@@H]1OC(=O)[C@H]1CCCCCC)OC(=O)[C@H](CC(=O)O)NC=O [Compound 743]
[1]
  LDH leakage: inducing LDH leakage

## CCCCCCCCCCC[C@@H](C[C@@H]1OC(=O)[C@H]1CCCCCC)OC(=O)[C@H](CC(C)C)NC=O [orlistat]
[2]; [6]
  5 day survival: 2/7
  PD (pulse distention, shock): 171±21 μm
  UFAs: 5.4 ± 0.9 mM
  leucopenia (mice affected): 4/7
  mortality: 5/7
  serum calcium: 4.2 ± 0.3 mg/dL
  temperature (hypothermia): 86±0.9 ° F.
[2]; 20 mg/kg single intraperitoneal dose, ob/ob mice, caerulein pancreatitis
  BUN (peak): 50 ± 4.4 mg/dL
[2]; compared between 767 and orlistat treated animals
  fat necrosis (gross appearance): much more extensive fat necrosis

## CCCCCCCCCCC[C@@H](C[C@@H]1OC(=O)[C@H]1CCCCCC)OC(=O)C(CCCNC=O)NC=O (stereo partly shown) [Compound 734]
[3]
  IC50: ≤ 2000 nM
[4]
  IC50: ≤ 2000 nM

## CCCCCCCCCCC[C@@H](C[C@@H]1OC(=O)[C@H]1CCCCCC)OC(=O)[C@H](CCCNC(=N)N)NC=O [Compound 740]
[3]
  IC50: ≤ 2000 nM
[4]
  IC50: ≤ 2000 nM
[5]; LDH leakage
  efficacy in reducing GTL induced acinar injury compared with orlistat: more efficacious
[5]; acinar cells
  toxicity compared with orlistat: less toxic
